Source: PubChem BioAssay AID1745853 (National Center for Advancing Translational Sciences (NCATS), 2022)
This is one part of the list. Further columns of the screen follow, without active or inactive calls.

Legend:
Test in all cases: Primary Screen for Target Class Profiling of Small Molecule Inhibitors of Methyltransferases
[1] = molecular target: Glycine N-methyltransferase (Homo sapiens) (UniProt Q14749); settings: purified enzyme, MTase-Glo SAH luminescence; measured here: GNMT inhibition; at 40 µM; stronger effect = lower value
Procedure, shortened: (§1)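 Each enzyme was assayed with SAM and its substrate. SAH formation detected by MTase-Glo luminescence; single-point 40 uM screen[…].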

[2] = molecular target: Guanidinoacetate N-methyltransferase (Homo sapiens) (UniProt Q14353); settings: purified enzyme, MTase-Glo SAH luminescence; measured here: GAMT inhibition; at 40 µM; stronger effect = lower value
Procedure, shortened: as §1

[3] = molecular target: Histamine N-methyltransferase (Homo sapiens) (UniProt P50135); settings: purified enzyme, MTase-Glo SAH luminescence; measured here: HNMT inhibition; at 40 µM; stronger effect = lower value
Procedure, shortened: as §1

[4] = molecular target: Nicotinamide N-methyltransferase (Homo sapiens) (UniProt P40261); settings: purified enzyme, MTase-Glo SAH luminescence; measured here: NNMT inhibition; at 40 µM; stronger effect = lower value
Procedure, shortened: as §1

[5] = molecular target: Phenylethanolamine N-methyltransferase (Homo sapiens) (UniProt P11086); settings: purified enzyme, MTase-Glo SAH luminescence; measured here: PNMT inhibition; at 40 µM; stronger effect = lower value
Procedure, shortened: as §1
On the % scale 0 is the no-effect control and ±100 the full control effect.

Compound	activity change, negative = inhibition [1]	activity change, negative = inhibition [2]	activity change, negative = inhibition [3]	activity change, negative = inhibition [4]	activity change, negative = inhibition [5]
CCCN1C(=O)c2cc3ccc(OC)cc3n2CC1(C)C(=O)NC1CCCC1 (stereo not given)	1.14%	0.451%	7.84%	6.98%	0.784%
NCCc1noc(Cc2ccccc2)n1	2.17%	0.085%	2.24%	0.934%	3.4%
CC1(C)O[C@@]2(C)CC[C@@H]1C[C@@H]2OC1OC(CO)C(O)C(O)C1O (stereo not given in full)	-0.321%	-4.68%	1.99%	-15.7%	2.37%
CCc1ccccc1NC(=O)Cn1nc2n(CC(C)C)c(=O)c3ccc(C(=O)NCC(C)C)cc3n2c1=O	7.68%	0.496%	11.5%	5.04%	6.64%
Cn1c(Cn2cccn2)nnc1C1CC(Nc2ncnc3sccc23)C1 (stereo not given)	-7.21%	-5.72%	-2.81%	-19.4%	-5.84%
CC(C)CCNC(=O)N1c2ccccc2CC1c1noc(C2CCOCC2)n1 (stereo not given)	-2.32%	-2.93%	-0.709%	-5.01%	0.261%
COc1ncccc1C(=O)N1CCc2onc(-c3cccc4ccccc34)c2C1	-9.96%	-1.37%	-0.516%	-12.6%	-3.42%
CC(C)NC(=O)c1ccc2c(=O)n(Cc3ccccc3)c3nn(Cc4ccccc4)c(=O)n3c2c1	8.21%	0.274%	9.57%	8.89%	9.63%
O=C(O)c1cc(=O)cc(C(=O)O)[nH]1	-3.6%	9.15%	2.04%	-0.502%	8.97%
C=C(C)[C@@H]1CC[C@]2(C(=O)O)CC[C@]3(C)C(CCC4[C@@]5(C)C[C@@H](O)[C@H](O)C(C)(C)C5CC[C@]43C)C12 (stereo not given in full)	-12.8%	4.44%	3.69%	-13%	1.24%
CC(C)OCCCNC(=O)C1c2c(n(C)c3ccccc23)SCC(=O)N1c1ccc(F)cc1 (stereo not given)	1.73%	0%	-0.892%	2.16%	3.85%
CCCn1c(=O)c2ccccc2n2c(SCC(=O)NC(C)C)nnc12	2.04%	0.471%	5.7%	2.09%	1.29%
CNC(=O)c1cc(Oc2ccc(NC(=O)Nc3cc(C(C)(C)C)nn3-c3ccc4ncccc4c3)c(F)c2)ccn1	5.94%	6.87%	12.2%	-27.2%	5.2%
CCCn1c(=O)c2ccc(C(=O)NC(C)C)cc2n2c(SCc3ccccc3C)nnc12	3.55%	0%	4.09%	1.99%	0.912%
Cc1ccc(C)c(N2C(=O)c3cc4ccccc4n3CC2(C)C(=O)NC2CCCC2)c1 (stereo not given)	-0.181%	0.486%	-3.62%	1.82%	-4%
C/C1=C\C[C@H](O[C@@H]2O[C@H](CO)[C@@H](O)[C@H](O)[C@H]2O)/C(C)=C/[C@H]2OC(=O)[C@H](C)[C@@H]2CC1	3.96%	0.709%	9.16%	-7.76%	-1.5%
OC[C@H]1O[C@H](O[C@]2(CCl)O[C@H](CCl)[C@@H](O)[C@@H]2O)[C@H](O)[C@@H](O)[C@H]1Cl	-0.325%	3.17%	9.03%	-10.7%	4.26%
CC(CNC(=O)CCCc1nnc2n3nc(-c4ccccc4)nc3c3ccccc3n12)c1ccccc1 (stereo not given)	-14.8%	4.19%	-6.07%	-7.07%	-5.5%
O=C(Cc1ccc(Cl)cc1)Nc1cnccc1C(=O)O	2.71%	7.46%	5.75%	-8.23%	2.52%

Compound	activity change, negative = inhibition [1]	activity change, negative = inhibition [2]	activity change, negative = inhibition [3]	activity change, negative = inhibition [4]	activity change, negative = inhibition [5]
O=C(CSc1nnc2n(CCc3ccccc3)c(=O)c3ccccc3n12)NCc1ccccc1	6.75%	0.521%	11.2%	5.41%	5.71%
COC(=O)c1cc(COc2ccc3c(-c4ccccc4)cc(=O)oc3c2C)c(C)o1	-2.73%	3.78%	1.1%	-3.8%	-8.14%
CCCCN1C(=O)c2cc(C(=O)N3CCN(c4ccc(OC)cc4)CC3)nn2CC1(C)C(=O)NC1CCCC1 (stereo not given)	-0.312%	0%	2.23%	-2.92%	-2.76%
CC(C)OCCCn1c(=O)c2ccccc2n2c(=O)n(CC(=O)NCc3ccccc3Cl)nc12	-4.38%	2.54%	-1.55%	0.671%	-2.99%
COc1ccccc1-c1ccc(C(=O)N2C[C@@H](N(C)C)[C@H](C(C)C)C2)cc1	-5.37%	-7.64%	-3.85%	-13.1%	10.7%
COCC(=O)N1CCC[C@@H]1C(=O)N1CCC(N2CCOC2=O)CC1	-6.13%	-8.96%	-5.01%	-12.7%	-10.9%
COc1cc2c3c(cc4ccccc4c3c1O)NC2=O	-22.4%	0.402%	-18.6%	-15.6%	1.6%
CC(C)C[C@H](NC(=O)[C@@H](NC(=O)c1cccc(-c2ccccc2)n1)[C@@H](C)O)B(O)O	-10.5%	-3.97%	8.71%	-21.3%	-6.29%
Cn1c(=O)n(C)c2cc(S(=O)(=O)N(Cc3ccccc3)C(=O)c3cccnc3)ccc21	-2.57%	4.98%	-2.34%	3.14%	-0.546%
CCC(=O)N1CCC(OC2CCN(C(=O)CC3CCCCC3)CC2)CC1	1.3%	3.47%	3.28%	-5.96%	18.3%
O=C(C1CC(=O)N(C2CC2)C1)N1CCC(Oc2ccccc2Cl)CC1 (stereo not given)	-1.19%	-10.1%	-1.09%	-4.99%	-0.32%
Cn1c2ccc(NC(=O)c3ccccc3)cc2c(=O)n2nc(C(=O)O)cc12	-14%	-9.17%	-2.76%	-16.7%	-3.25%
CC1c2cccn2CCN1C(=O)Nc1ccccc1Br (stereo not given)	-10.5%	-1.43%	-6.87%	-16.2%	-9.83%
CCCn1c(=O)c2cc(F)ccc2n2c(SCc3ccccc3)nnc12	-16.2%	0%	3.14%	-4.93%	1.75%
O=C(CCn1ccc2cc(S(=O)(=O)N3CCCC3)ccc21)NCc1ccccn1	-1.88%	-8.16%	3.18%	-5%	-5.82%
CCCCc1ccc(-n2cc(CN3CCN(C(C)=O)CC(O)C3)cn2)cc1 (stereo not given)	-7.27%	-13%	-4.41%	-20%	-26.7%
CC(=O)Nc1c2n(c3ccccc13)CC(C)(C(=O)NC1CCCC1)N(C1CCC(C)CC1)C2=O (stereo not given)	3.31%	0%	2.68%	-1.75%	1.68%
C=CCn1c(=O)c2ccc(C(=O)NCC(C)C)cc2n2c(=O)n(CC(=O)N(C)c3ccccc3)nc12	-3.96%	-0.113%	2.42%	-6.72%	-2.48%
CC1(C(=O)NC2CCCCC2)Cn2c(cc3occc32)C(=O)N1C1CCCCCC1 (stereo not given)	8.14%	0%	8.35%	17.1%	5.74%
